The source of these data is ChEMBL document CHEMBL1133545, “Inhibition of monoamine oxidases by functionalized coumarin derivatives: biological activities, QSARs, and 3D-QSARs” (J Med Chem, 2000).

One may read the IC50 as the concentration that gives 50% inhibition. Read a high IC50 as weaker potency in that assay. As usually defined, the inhibition is the relative decrease from the control value, in per cent.

For assay [1], the target named is T1, Amine oxidase [flavin-containing] A (Rattus norvegicus, UniProt P21396).
T1 sequence (P21396 whole entry): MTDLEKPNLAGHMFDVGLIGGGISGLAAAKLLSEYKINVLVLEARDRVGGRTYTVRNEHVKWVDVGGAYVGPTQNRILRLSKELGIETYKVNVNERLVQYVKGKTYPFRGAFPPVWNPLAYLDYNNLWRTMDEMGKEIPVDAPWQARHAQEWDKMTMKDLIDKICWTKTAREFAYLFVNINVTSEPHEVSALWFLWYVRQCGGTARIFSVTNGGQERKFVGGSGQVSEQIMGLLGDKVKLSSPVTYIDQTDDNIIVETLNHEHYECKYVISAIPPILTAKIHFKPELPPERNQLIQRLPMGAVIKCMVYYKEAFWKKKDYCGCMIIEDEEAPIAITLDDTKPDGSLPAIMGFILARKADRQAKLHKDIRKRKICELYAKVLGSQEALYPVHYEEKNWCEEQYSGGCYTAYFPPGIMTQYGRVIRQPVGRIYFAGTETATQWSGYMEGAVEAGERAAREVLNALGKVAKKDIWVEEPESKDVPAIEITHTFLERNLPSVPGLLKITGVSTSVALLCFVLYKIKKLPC

In assay [2] the target is T2, Amine oxidase [flavin-containing] B (Rattus norvegicus, UniProt P19643).
T2 sequence (P19643 whole entry): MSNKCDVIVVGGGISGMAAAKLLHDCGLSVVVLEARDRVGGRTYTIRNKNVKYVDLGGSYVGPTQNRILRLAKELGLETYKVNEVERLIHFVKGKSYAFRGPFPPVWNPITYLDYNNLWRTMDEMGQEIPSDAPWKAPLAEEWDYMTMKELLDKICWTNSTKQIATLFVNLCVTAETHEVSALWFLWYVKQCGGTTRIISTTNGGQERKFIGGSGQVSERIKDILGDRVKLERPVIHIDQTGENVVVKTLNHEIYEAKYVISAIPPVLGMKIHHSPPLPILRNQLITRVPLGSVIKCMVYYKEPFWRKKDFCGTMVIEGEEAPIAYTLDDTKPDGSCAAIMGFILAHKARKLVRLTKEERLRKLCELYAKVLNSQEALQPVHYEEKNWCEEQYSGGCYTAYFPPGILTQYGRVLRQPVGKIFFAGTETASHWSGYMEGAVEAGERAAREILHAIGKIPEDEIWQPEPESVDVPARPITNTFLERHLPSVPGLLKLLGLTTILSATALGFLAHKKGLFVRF

For assay [3], the target named is T1, Amine oxidase [flavin-containing] A. This is another data set of the same source.

On to `O=c1oc2cc(OCc3ccccc3)ccc2c2c1CCCC2`, for which the IC50 is 1580 nM in assay [1] and 3.47 nM in assay [2].
The corresponding values for `O=c1oc2cc(OCc3ccccc3)ccc2c2c1CCC2` are 1580 nM and 3.47 nM.
As for `Cc1ccc(COc2ccc3c(C)c(C)c(=O)oc3c2)cc1`, the results for the IC50 in assay [1] and in assay [2] were 3720 nM and 6.17 nM, respectively.
With `Cc1c(C)c2ccc(OCc3cccc(C(F)(F)F)c3)cc2oc1=O`, the IC50 in assay [1] was 1910 nM; in assay [2], 5.75 nM.
In assay [2], `O=c1oc2cc(OCc3ccccc3)ccc2c2ccccc12` gave an IC50 of 50.1 nM. Further, at 1 µM the inhibition in assay [3] was 7%.
With `Cc1c(C)c2ccc(OCc3cccc(F)c3)cc2oc1=O`, the IC50 in assay [1] is 575 nM; in assay [2] it was 2.82 nM.
On to `Cc1c(C)c2cc(OCc3ccccc3)c(O)cc2oc1=O`, for which the IC50 in assay [1] was 112000 nM; in assay [2], 3090 nM.
For `COc1cccc(COc2ccc3c(C)c(C)c(=O)oc3c2)c1`, in that order: 1510 nM and 3.63 nM.
With `Cc1c(C)c2ccc(OCc3cccc([N+](=O)[O-])c3)cc2oc1=O`, the values for the IC50 in assay [1] and in assay [2] were 75.9 nM and 2.57 nM, respectively.
In the case of `Cc1c(C)c2ccc(NCc3ccccc3)cc2oc1=O`, the IC50 in assay [1] is 1580 nM; in assay [2] it was 162 nM.
In the case of `Cc1cccc(COc2ccc3c(C)c(C)c(=O)oc3c2)c1`, the IC50 in assay [1] is 3310 nM; in assay [2] it was 4.37 nM.
In the case of `O=c1ccc2ccc(COc3ccccc3)cc2o1`, the IC50 in assay [1] was 389 nM; in assay [2], 85.1 nM.
With `O=c1ccc2ccc(CNc3ccccc3)cc2o1`, the IC50 in assay [1] was 41700 nM; in assay [2], 2140 nM.
With `Cc1c(C)c2ccc(NC(=O)c3ccccc3)cc2oc1=O`, the figures for the IC50 in assay [1] and in assay [2] were 1380 nM and 191 nM, respectively.
For the compound `Cc1c(C)c2cc(O)c(OCc3ccccc3)cc2oc1=O`, the IC50 in assay [1] was 9330 nM; in assay [2], 28.2 nM.
In the case of `Cc1cc(=O)oc2cc(OCc3ccccc3)ccc12`, the results for the IC50 in assay [1] and in assay [2] were 1950 nM and 18.2 nM, respectively.
